# Measured values published in the supplement of paper PMC12632987.
# In all, about 4,500 sequences were measured (“median log2 fold change of GCK-ALFA target abundance (FLAG IP / Myc IP barcode read proportion)”: median about 0.078, lowest 2% from about -0.6 on). Some of the results follow.
# B1: GBRAP_184_5343 (protein)
# chain: KTIEVHIENLSLEEMVKEAEKAAKKAAEQGADLLISIDAEGLSDEELVELVERIGEIAKKLGVKNLTIGIDKAVDEETADKLIEVADKYGIKLTIALEDE
# B2: GBRAP_160_4839 (protein)
# chain: SEKEKAVEERLEEARDEVLSLVDEVTVEQLANFYDVEINSVLLELREEGYINEEAEDVGLEIVDKGVADLLAAADATPEEIRAIIERHTKELIEAIKKLL
# B3: GBRAP_137_3642 (protein)
# chain: ANVTITTKTIDDLVEITVRYDDPEKAEEVAELIRDIAAEHGALAISIEIKEDGTLEAVVWIPKEKAEAFLEALIKALQTEFGANVTVIDEDTGETKVYKA
# B4: GBRAP_166_4923 (protein)
# chain: GTEEKVEKARKELKKVIEEGKADPSLTKGQITAAMAYKTAEMLKEEEDRETKLAIVEEALKLAKEEGLDPRRLATLTASLYGFSDEEIDEIDEITEKILA
# B5: GBRAP_43_5761 (protein)
# chain: SKELVEGALDFALLALEEPEISEETKVKAIKAAFDLAADEGYMDEEKVLEVIKAAGKSLSKEELEKLAKHLEELAKKYPELKEVLDKALKILEEAIKKKK
# B6: GBRAP_52_6366 (protein)
# chain: DLEEAVKLLREAVKAVLEGKEEEAEKILKEIVENFSEETILEAARRLAEELLEKSLEEAEAFLEAAIMLADILEEAGKSEVVGDEIEAIAARTLMEIRER
# B7: GBRAP_128_3250 (protein)
# chain: PNPEVVAYAEEFVDRLVAADEEEARRIAEEFAEYLLTISTEEAEVAIEVVEERLHLLSPEHLDILADVLREHRPRFSPEKANLVAGLEVAALNEREELEE
# B8: GBRAP_122_2943 (protein)
# chain: AATAARLQALIDAMVAALDAGDDAALQALADELVALFDTISPEEAVAAVQALLAAVADNPEKRERALQALIAAFAKHQPLTPAQEAAADVVAEAFDELSE
# B9: GBRAP_14_3837 (protein)
# chain: MEEIKKILEETAKEIAKDLSELAGLDEEEVKKRLLEIVKKALELYEKTGDIEKALEYFEEESLKLVKELLKDKSPELQAEALAIVRVEIGEARLEIEELL
# B10: GBRAP_52_5977 (protein)
# chain: MEEEARRIAEELVRLRLAGDEEGAEKLIKEVVETKSEEFIEKVLEALAEMAKTADPATLDAIVDVALMLEDAALEAGFDEARVEAGVARVAAAAVAALAA
# B11: GBRAP_137_3627 (protein)
# chain: ATVTIELRRYEDVVEITITLDDPEKAEAAAELVEDVAHEEGALAVSIELEEDGTLVVEVWVPRDKAEALLARLVERLTTELGATVVIRDLDTGEVRVVTP
# B12: GBRAP_52_6266 (protein)
# chain: MREELREQVEEIFELVKEGKLEEARKLARELVESLNEEELELFIKELAEFAKTISKEEIPYAEKTVEIIAEEMEKAGVPEELVSLFEAEAYGALYEREKK
# B13: GBRAP_78_6618 (protein)
# chain: EKKEEIIKLLEKAEELMREIRKREPEVADLAAEAAVLAGTALLMVDTGEESKEEIIKELEEALEQAKKLLKELEGKNEESKKLAKEAIKNLKEALKLVKE
# B14: GBRAP_52_5904 (protein)
# chain: MREELRAQVEEMLALVRAGDLEGARALAREIAETLNDEELRLLIEEVAALVREAPLEELPAWWRLAEIMAEAFEEAGKDEVLADDLLAATAAAIHERLQR
# B15: GBRAP_160_4792 (protein)
# chain: DERVEKVAKRFRESLEEALKLAEGESNENRVNIFDVELGSTILELIEEGLLNDEEEEVAIEVRDELVEKIRANPDLTEEELRKLAEEAVKELRERLKKLR
# B16: GBRAP_128_3277 (protein)
# chain: MNEEIVKKARDFVEKLKAANKEEAKKIAEEFADWLGSISTEEAEQAVDVIIKELHKLTKEQLEILADVLEEKRDEFDPEKANLVADLQVEALNEAEEKEE
# B17: GBRAP_52_6104 (protein)
# chain: MREELRRRVLEILELVKAGKLEEARRRIEELVEELDDEELRLVAEELAEVAREAAPEDLDAVWRLAEMLAEALEEAGKDEVLVDYLLSSTAAALYEREQA
# B18: GBRAP_125_3104 (protein)
# chain: SEEELLEDLKALALALGFSEEDAEEAARLAAEFSLKNTLIAILLAEGEEELAELVEKLTEEQAKEVLKKLAEYLKKHPNATKEEVIEKFKELVEEALAKS
# B19: GBRAP_160_4329 (protein)
# chain: SEEFEKLIEFIDEEFEETKELIKGLSLEQVKVLIEGTFGEIIMEMSENESISDELVDFVVAERDALLATLDANPDLSEEEIKALIDEARERIKEALKKEA
# Molecular target: GABARAP, O95166
# Assay: median log2 fold change of GCK-ALFA target abundance (FLAG IP / Myc IP barcode read proportion) (log2 ratio); each designed protein is fused to an ALFA-tag nanobody in HEK293 cells to bring the named protein to FLAG-tagged glucokinase (GCK); Myc marks an untargeted standard; higher = target protein stabilised (more abundant)
# Settings: target protein: 3xFLAG-MCP-GCK-ALFA reporter; HEK293 landing pad (RPLP)
# Outline: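 Binders fused to an ALFA nanobody were recombined as a library into HEK293 landing-pad cells, which were induced with 2 μg mL^−1 doxycycline and then transfected to express a FLAG-tagged target and a Myc-tagged standard. After 48 h, circular RNA barcodes recovered by anti-FLAG and anti-Myc immunoprecipitation of lysates were reverse transcribed, amplified and sequenced. Each binder's target abundance is the median log2 ratio of FLAG to Myc barcode read proportions, from barcodes present at ≥10^−7 in both replicates, binders carrying ≥3 barcodes per replicate, a 10^−6 pseudocount and pooled replicates.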
# Chain of GABARAP, O95166 (O95166 whole entry, the tested form may be a part): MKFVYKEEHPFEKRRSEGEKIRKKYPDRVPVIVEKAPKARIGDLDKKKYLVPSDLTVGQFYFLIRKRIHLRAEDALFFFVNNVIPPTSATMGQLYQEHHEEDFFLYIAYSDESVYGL
row,Binder,median log2 fold change
1,B1,0.0617
2,B2,-0.0133
3,B3,0.255
4,B4,0.22
5,B5,0.219
6,B6,-0.214
7,B7,0.123
8,B8,0.334
9,B9,0.159
10,B10,-0.178
11,B11,-0.0361
12,B12,0.0302
13,B13,0.306
14,B14,-0.644
15,B15,0.0289
16,B16,0.254
17,B17,0.065
18,B18,-0.801
19,B19,-0.22
